# Results as given in publication PMC4336329 (PLoS ONE, 2015).
# Out of some 310,000 compounds screened, about 2,200 (0.71%) showed an effect of 50% or more. Effects have a minus sign here. The list shows a part of the results.
# Target: human ether-à-go-go-related gene (hERG) potassium channel (human, UniProt Q12809)
# Assay: primary screen, population patch clamp on CHO cells stably expressing hERG
# Chain of human ether-à-go-go-related gene (hERG) potassium channel (Q12809 whole entry, looked up): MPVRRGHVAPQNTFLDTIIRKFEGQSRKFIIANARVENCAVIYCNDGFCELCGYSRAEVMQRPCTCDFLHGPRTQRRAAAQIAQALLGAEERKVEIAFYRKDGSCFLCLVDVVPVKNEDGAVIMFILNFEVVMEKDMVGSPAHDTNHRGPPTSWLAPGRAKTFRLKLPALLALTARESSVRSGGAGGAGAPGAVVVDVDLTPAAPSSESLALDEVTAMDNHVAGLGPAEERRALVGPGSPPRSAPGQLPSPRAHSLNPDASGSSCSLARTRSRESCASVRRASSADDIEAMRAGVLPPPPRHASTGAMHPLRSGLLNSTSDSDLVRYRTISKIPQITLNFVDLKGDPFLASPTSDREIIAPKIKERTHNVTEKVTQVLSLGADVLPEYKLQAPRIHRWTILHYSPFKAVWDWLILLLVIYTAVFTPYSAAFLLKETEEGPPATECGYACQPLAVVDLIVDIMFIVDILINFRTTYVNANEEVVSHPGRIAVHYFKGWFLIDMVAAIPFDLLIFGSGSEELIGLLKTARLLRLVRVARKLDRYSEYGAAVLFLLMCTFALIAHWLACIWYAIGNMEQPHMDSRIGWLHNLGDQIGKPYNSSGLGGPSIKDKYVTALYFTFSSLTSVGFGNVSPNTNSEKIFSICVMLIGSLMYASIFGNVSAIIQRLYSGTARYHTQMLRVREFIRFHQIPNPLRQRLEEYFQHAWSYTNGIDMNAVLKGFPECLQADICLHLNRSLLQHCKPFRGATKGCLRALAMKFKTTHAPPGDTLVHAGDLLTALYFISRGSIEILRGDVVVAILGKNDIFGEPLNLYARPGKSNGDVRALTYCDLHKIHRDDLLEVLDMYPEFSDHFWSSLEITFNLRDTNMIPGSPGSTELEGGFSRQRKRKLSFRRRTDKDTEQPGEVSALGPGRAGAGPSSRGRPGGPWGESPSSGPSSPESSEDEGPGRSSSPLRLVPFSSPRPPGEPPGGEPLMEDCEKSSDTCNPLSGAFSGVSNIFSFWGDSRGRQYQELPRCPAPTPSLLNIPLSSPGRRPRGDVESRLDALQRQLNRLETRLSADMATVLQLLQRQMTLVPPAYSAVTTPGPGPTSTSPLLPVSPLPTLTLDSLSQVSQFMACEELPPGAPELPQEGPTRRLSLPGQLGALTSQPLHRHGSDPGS
row,Compound,"hERG current change (%, negative = inhibition) at 1uM [%]"
1,CCN(Cc1ccccc1)C(=O)CCNS(=O)(=O)c1ccc2c(c1)CC(C)N2C(C)=O (centres unmarked),7.11
2,O=C(NC(=S)NC1CCCCC1)c1ccc(Cl)cc1,-3.64
3,CC1CCN(c2ccc(-c3cccs3)nn2)CC1,4.68
4,Cc1c(C(=O)N2CCN(c3ccccc3)CC2)oc2c1C(=O)CC(C)(C)C2,-0.551
5,CCN(C(=O)c1ccc(C(C)(C)C)cc1)c1nnc(Cn2nnc3ccccc32)s1,7.42
6,CN1CCN(c2ncnc3c2cnn3C)CC1,15
7,CC1(c2nnc(-c3ccncc3)o2)CC(c2ccccc2)=NO1 (centres unmarked),16.4
8,CCOc1cc(C(=O)O/N=C(\N)c2ccccn2)cc(OCC)c1OCC,2.3
9,O=C(c1ccco1)c1coc2c1cc(O)c1ccccc12,11.8
10,CCOC(=O)C1CCN(c2nc3ccccc3nc2C(C#N)C(=O)OC(C)C)CC1 (centres unmarked),12.6
11,Cc1ccc(C)c(OCC(=O)N/N=C/c2ccsc2)c1,11.7
12,Cc1ccc(S(=O)(=O)N2CCN(c3ccccc3)CC2)cc1,13.7
13,COc1ccc(C(=O)NCC(=O)n2nc(C)cc2C)cc1OC,21.5
14,Cc1ccc(NC(=O)N2CCC(C(=O)NCc3ccc(F)cc3)CC2)cc1,-14
15,Cc1ccc(NC2=CC(=O)C(=O)c3ccccc32)c(C)c1,12
16,CS(=O)(=O)c1ccc(Cl)c(C(=O)OCC(=O)NC2CCCCCCC2)c1,-6.69
17,Cc1cc(C)n(CC(O)COCc2ccccc2)n1 (centres unmarked),10.6
18,COc1ccc(-c2nc3ccc(C(=O)NCC(OC)OC)cc3nc2-c2ccc(OC)cc2)cc1,10.2
19,COc1c(OC)c(O)c2c(=O)cc(-c3c(O)cccc3O)oc2c1OC,9.06
20,CCN(CC)S(=O)(=O)c1cccc(NC(=O)c2ccccc2Br)c1,9.8
21,Cc1ccc(-c2cc(C(F)F)n3ncc(C(=O)Nc4c(C)nn(Cc5c(Cl)cccc5Cl)c4C)c3n2)cc1,23.1
22,COc1cccc(N2CCN(C(=O)c3cc(-c4ccc(F)cc4)[nH]c3C)CC2)c1,-23.8

row,Compound,"hERG current change (%, negative = inhibition) at 1uM [%]"
1,CC(=O)Nc1cnc2ccccc2n1,9.39
2,O=C(CN(C(=O)CNC(=O)c1ccco1)c1ccc(F)cc1)NC1CCCCC1,7.31
3,CSC(=NC#N)N1CCN(c2c(C)cccc2C)CC1,-7.55
4,C[C@H]1CN=C(N(C)C)N1CC1CCC(C(C)(C)C)CC1 (some centres unmarked),-15.4
5,O=C(Nc1cccc(Cl)c1N1CCOCC1)c1ccc2c(c1)OCCO2,6.12
6,O=C(COC(=O)C1CC2C=CC1C2)Nc1cccc(S(=O)(=O)N2CCCCCC2)c1 (centres unmarked),3.14
7,C#CCOCCOCCOCCNc1nc(N2CCN(C(=O)CCCCCCCCCCNC(=O)[C@H](CCCCN)n3cc(CCCC(=O)O)nn3)CC2)nc(N2CCN(C(=O)CCCCCCCCCCNC(=O)[C@H](CCCCN)n3cc(CCCC(=O)O)nn3)CC2)n1,9.07
8,O=C(CSc1ccccn1)N1CCN(S(=O)(=O)c2ccc(Cl)cc2)CC1,-0.585
9,Cc1nnc(NC(=O)c2ccc(S(=O)(=O)N3CCCCC3C)cc2)o1 (centres unmarked),10.8
10,COc1cc(Cl)ccc1OCc1cc(C(=O)N(C)C2CC(C)(C)NC(C)(C)C2)no1,14
11,C=CCCc1ccc(C#N)c(SCc2c(C(=O)OCC)c3cc(OC(C)=O)c(Br)cc3n2C)n1,3.3
12,CCOc1ccc(NC(=S)N(Cc2ccc(Cl)cc2)Cc2ccco2)cc1,10.1
13,O=C(Nc1cc(Cl)ccc1O)c1snnc1-c1ccccc1,10.8
14,CCN(CC(=O)Nc1ccc(NC(C)=O)cc1)C(=O)CCCc1nc2ccccc2s1,21.6
15,CC(=O)C1=C(c2cccc([N+](=O)[O-])c2)N(C(C)=O)n2c(C)nnc2S1,1.05
16,CCCOc1ccc(-c2c(C(=O)N/N=C/c3ccc(OCC)cc3)nnn2-c2nonc2N)cc1,12.3
17,Cc1ccccc1C(=O)NC(C(N)=O)P(=O)(OC(C)C)OC(C)C (centres unmarked),-24.8
18,C[C@@H](NC(=O)c1[nH]cnc1C(=O)Nc1ccc(Cl)cc1)c1ccccc1,19.9
19,CN(C)C(CNc1ccc(C(F)(F)F)cn1)c1ccccc1 (centres unmarked),7.51
20,O=C(COC(=O)CC12CC3CC(CC(C3)C1)C2)Nc1cccnc1Cl,1.93
21,O=C(NCCCN1CCC(Cc2ccccc2)CC1)C1CC(=O)N(C2CCCCCC2)C1 (centres unmarked),-29.9
22,O=C(Cn1nnc(-c2ccc(N3CCOCC3)cc2)n1)N1CCOCC1,-2.69

row,Compound,"hERG current change (%, negative = inhibition) at 1uM [%]"
1,COc1ccc(Cc2nnc(NC(=O)Nc3ccc(C)cc3)s2)cc1OC,13.5
2,CCN(CC)S(=O)(=O)c1ccc(NS(=O)(=O)c2ccc(C)c(C)c2)cc1,-3.41
3,CC(NC(=O)/C=C/c1cnc2ccccc2n1)C12CC3CC(CC(C3)C1)C2 (centres unmarked),4.27
4,CN(C)CCCn1c2c(c(SCC(=O)Nc3ccc4c(c3)OCCO4)nc1=O)CCC2,4.13
5,O=P1(Oc2ccccc2)C[C@@H](O)[C@@H](O)[C@H](COCc2ccccc2)O1 (some centres unmarked),7.07
6,COc1ccc(F)cc1C(=O)C1CCCN(Cc2c(C)n(C)n(-c3ccccc3)c2=O)C1 (centres unmarked),-0.866
7,C/C(=N\NC(=O)C1COc2ccccc2O1)c1ccc(Cl)s1 (centres unmarked),18.1
8,Cc1cccc(-n2c(C)cc(C)c(C#N)c2=O)c1,6.14
9,Cc1c(NC(=O)c2ccc(F)c(S(=O)(=O)N3CCOCC3)c2)c(=O)n(-c2ccccc2)n1C,8.58
10,O=C(CCNC(=O)c1ccc(Cl)cc1)Nc1ccccc1N1CCCCC1,7.8
11,CC(NCc1ccc(S(N)(=O)=O)cc1)C(=O)Nc1ccc([N+](=O)[O-])cc1Cl (centres unmarked),-6.93
12,COc1ccccc1-c1nnc(SCC(=O)NC2CC2)n1C,-12
13,COc1ccccc1CCC(=O)Nc1cc(S(=O)(=O)N2CCCCC2)ccc1N1CCN(C)CC1,7.81
14,CCCC(=O)NC(C)c1nc2ccccc2n1CC (centres unmarked),5.95
15,Cc1sc2nc(SCC(=O)N3CCOCC3)[nH]c(=O)c2c1C,12.8
16,CCOc1ccc(N(CC(=O)NCc2ccc(C)cc2)S(=O)(=O)c2c(C)[nH]c(=O)[nH]c2=O)cc1,11.8
17,COc1cccc(NC(=O)COC(=O)C2CC(=O)N(c3ccc(C)cc3)C2)c1 (centres unmarked),6.44
18,O=C(c1n[nH]c2ccccc12)N1CCN(S(=O)(=O)c2ccccc2)CC1,3.18
19,CC(C)Cc1ccc(CN2CCCC(NC(=O)CCN3CCOCC3)C2)cc1 (centres unmarked),4.74
20,CCc1ccccc1Nc1nc2ccccc2n1CC,19
21,CCOc1ccc2nc(N(CCCN(C)C)C(=O)c3ccc(C(=O)c4ccccc4)cc3)sc2c1.Cl,5.4
22,O=C(CN1CCOCC1)Nc1c(C(=O)C2CC2)oc2ccccc12,9.86

row,Compound,"hERG current change (%, negative = inhibition) at 1uM [%]"
1,COc1cccc(/C=C/C(=O)OCC(=O)NCC2CCCO2)c1 (centres unmarked),11.6
2,Cc1ccc(NC(=Nc2ccc(Br)cc2)N2CCOCC2)cc1C,-1.01
3,Cc1ccc(NC(=O)c2ccc(NCCCN3CCOCC3)c([N+](=O)[O-])c2)cc1Cl,8.15
4,Clc1cccc(C2NCCc3[nH]cnc32)c1 (centres unmarked),0.0369
5,O=c1cc(O)c2c(=O)n(C3CCCCC3)c3ccccc3c2o1,10.4
6,COC(=O)c1c(NC(=O)c2ccoc2C)sc2c1CCC2,7.4
7,CC(=O)c1ccc(N(C(=O)CNC(=O)c2ccco2)C(C(=O)NC2CCCC2)c2ccc(C)o2)cc1 (centres unmarked),-1.35
8,Cn1c(=O)[nH]c(=O)c2c1nc(CN1CCN(Cc3ccccc3)CC1)n2CC(N)=O,6.48
9,COc1ccc(O)c(/C=N/N2CCOCC2)c1,18.1
10,CN(CCOc1ccc(C=C2C(=O)NC(=O)NC2=O)cc1)c1ccccn1,12.5
11,CC(C)/C(=N/Nc1ccccc1[N+](=O)[O-])c1ccccc1,22.6
12,CCOC(=O)C1=NOC(CN(c2ccccc2)S(=O)(=O)c2ccc(Cl)cc2)C1 (centres unmarked),1.84
13,CCc1ccc(NC(=O)c2n[nH]c(=O)c3ccccc23)cc1,11.4
14,CCN1C(=O)/C(=C/C=C2/CCCN2C)OC1=S,5.94
15,Nc1cc2ccncc2c2ccccc12,4.55
16,CCc1cc(C(=O)N(CC)CC(=O)Nc2ccc(OC)cc2)sc1C,5.23
17,Cc1cc(S(=O)(=O)Nc2c(C(=O)O)[nH]c3ccccc23)ccc1F,6.88
18,COC(=O)c1ccccc1NC(=O)c1cccc(NC(=O)C(C)C)c1,12.1
19,Cn1c(CSCc2ccc(Cl)cc2)nnc1SCC(=O)Nc1nc2ccccc2s1,12.5
20,CCCN1CCN(CCCNC(=S)Nc2ccc(F)cc2)CC1,6.17
